The campaign covered roughly 360,000 compounds. About 17,000 (4.7%) were called active. The inconclusive results got no clear call from the source; some entries with a clear call stand among them for comparison. Rule as the data show it: active = activity change below about -50%; inconclusive = mostly about -30% to -49%; inactive = weaker than that.
Test: qHTS for Inhibitors of Inflammasome Signaling: IL-1-beta AlphaLISA Primary Screen
Conditions: THP-1 LPS/ATP IL-1B secretion, 16 h; at 57.5 µM, stronger effect = lower value
In short: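 THP-1 cells pretreated 1 hr with compounds (up to 57.5 uM final), then stimulated with LPS (250 ng/mL final) plus ATP (1.25 mM final); secreted IL-1B measured by AlphaLISA after 16 hr, decreased signal indicating inhibition.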
% is scaled to controls: 0 for no effect and ±100 for the full control effect.

Activity change, active:
COc1ccc(CC(N)c2csc(NC(=O)Nc3cccc(C(F)(F)F)c3)n2)cc1 (stereo unspecified) -57.2%, CN(C)CCCN(C(=O)COc1ccc(Cl)cc1)c1nc2ccc(F)cc2s1 -65.1%, OCC1(Cc2cccc(Cl)c2)CCCN(Cc2ccc(F)c(F)c2)C1 (stereo unspecified) -55.3%, CN1CCN(NC(=O)Nc2ccc(Br)cc2Cl)CC1 -50.5%, c1ccc2c(c1)CCN(c1nc(CN3CCOCC3)nc3sc4c(c13)CCCC4)C2 -51.3%, O=[N+]([O-])c1ncc(Br)cc1Nc1ccccc1 -71.2%, Cc1ccc(Cl)c(NC(=O)COC(=O)c2ccccc2C(=O)c2ccc(Cl)c([N+](=O)[O-])c2)c1Cl -105%, Cc1cc(Cl)n2c(nc3cc(F)c(F)cc32)c1C#N -101%, CC(OCCN1CCCC1)(c1ccc(F)cc1)c1ccc(F)cc1 -59.5%, CCOC(=O)c1c(-c2ccccc2)csc1NC(=O)c1nn(CC)cc1Br -66.7%, CC(=O)Nc1nc(-c2ccccc2)nc(-c2ccccc2OC(C)=O)n1 -50.2%

Activity change, inactive:
CCOC(=O)N1CCN(C(=O)COc2cccc3c2CCN(Cc2ccc(F)cc2)C3=O)CC1 -24.2%, COc1ccc(CCCC(=O)NCCc2ccccc2)c(C)c1 0%, Cc1sc(NC(=O)Cc2ccc3c(c2)OCO3)nc1-c1ccc2c(c1)CCN2C(=O)c1cccc(F)c1 4.96%, CCN(Cc1ccccc1)C(=O)C1CCN(Cc2ccc(SC)cc2)CC1 -28.2%, Cc1ccc2c(c1)Oc1ccccc1C=C2C(=O)O 22.9%, O=C(CC(c1ccccc1)c1ccccc1)Nc1ccc(C(=O)O)cc1 9.22%, C=CCN(C(=O)Nc1ccc(F)cc1)C1CC(=O)N(c2ccc(OC)cc2)C1=O (stereo unspecified) 5.24%, C=CC(COCc1ccccc1)N([C@@H](Cc1ccccc1)C(=O)OC)S(=O)(=O)c1ccccc1Br (stereo partly specified) 11.9%, Cc1ccc(C(=O)C(C)OC(=O)Cn2c(C)csc2=O)cc1 (stereo unspecified) -7.91%, C[C@H](NC(=O)N1CCn2c1nc1ccccc12)C(=O)NCc1ccc(F)cc1 0%, Cc1ccc(NC(=O)c2ccccc2Cl)c(Cl)c1 -8.61%, CCCNC(=O)c1sc2c(c1C(=O)Nc1ccccn1)CCCC2 -8.4%, COc1ccc(-c2[nH]n(-c3ccc([N+](=O)[O-])cc3)c(=O)c2C=NCc2ccccc2)cc1 14.2%

Activity change, inconclusive:
CCn1cc(C(=O)O)c(=O)c2cc(F)c(N3CCN(C(=O)Nc4ccccc4)CC3)cc21 -34%, O=c1ccc(-c2ccccc2)nn1Cc1ccc(F)cc1Cl -33.1%, CCC(=O)N1Cc2cc(C(=O)NCc3cccc(F)c3)nc(-c3cccc(C4=CCCC4)c3)c2[C@H]1CCO -31.9%, N#Cc1ccsc1NC(=O)CSc1ncnc2ccccc12 -34.4%, O=C(Cc1c(Sc2ccccc2)c2ccccc2n1Cc1ccccc1)NCCO -30.2%, O=C(Nc1cccc(CNCCc2c[nH]c3ccccc23)c1)c1ccccc1Cl -42.9%, C/C(=N\Nc1c(F)c(F)c(Br)c(F)c1F)c1ccncc1 -48.8%, O=C(Nc1ccc(Cl)cc1)Nn1cnnc1 -41.6%, CC[C@@H](C)[C@H](CN[C@H](CNC)[C@@H](C)O)NCCc1ccc(OC)cc1 -36.8%, Cc1nc2sc(C(=O)c3ccccc3)c(N)c2c(C)c1C -48.8%, CCNc1nc2c(c(=O)n(Cc3ccccc3)c(=O)n2C)n1Cc1ccccc1 -38.5%, CCOC(=O)N1CCN(C(=O)c2cnc(Nc3ccccc3OC)c3ccccc23)CC1 -44.2%, Cc1cc2cc(C(c3nnnn3CC3CCCO3)N3CCCc4ccccc43)c(=O)[nH]c2cc1C (stereo unspecified) -33.7%, CN1CCCC(CN2c3ccccc3Sc3ccccc32)C1 (stereo unspecified) -35%, Cc1ccc(NC(=O)CN(C)CC(=O)Nc2ccccc2-c2ccccc2)cc1 -39.2%, CCOC(=O)c1[nH]c2ccc(OC)cc2c1NC(=O)CN1CCc2ccccc2C1 -34.5%, O=C(NCCN1CCN(Cc2ccccc2)CC1)Nc1cc(Cl)cc(Cl)c1 -40.7%, COc1cc(CNc2ncnc3c2[nH]c2ccc(C)cc23)cc(OC)c1 -32.1%, C/C(=N\NC(=O)c1ccc2ccccc2c1)c1cccnc1 -42.3%, COCCNC(=O)/C(C#N)=C/c1ccc(SC)cc1 -33.8%, CCOc1ccccc1N1CCN(C(=O)c2cc(-c3cc(OC)ccc3OC)nc3ccccc23)CC1 -47.4%, Nc1[nH][nH]c(=O)c1N=Nc1cccc(Cl)c1 -42.5%, COC(=O)c1ccccc1CC1SC(N)=NC1=O (stereo unspecified) -47.2%, O=C(Cn1nc(Cc2ccncc2)c2ccccc2c1=O)Nc1cccnc1Cl -30.2%, CC1CCN(CCCCOc2ccc(C(C)(C)C)cc2)CC1 -42.9%, Nc1ncncc1-c1ccc2ccccc2c1 -36.6%, COc1ccc2nc(Nc3nc(C)c(CCC(C)C)c(=O)[nH]3)nc(C)c2c1 -32.9%, COc1ccc(C(NC(=O)C2CCN(Cc3ccc(Oc4ccccc4)cc3)CC2)c2ccccn2)cc1 (stereo unspecified) -46.6%, COc1ccc(C2C(C(N)=O)=C(C)Nc3nc(-c4cccc(Cl)c4)nn32)cc1OC (stereo unspecified) -30.9%, O=C(NCCN1CCN(c2ccccc2)CC1)Nc1cccc(Cl)c1 -37.6%, CCOC(=O)c1sc2nc(CSc3ccccc3)nc(N3CCCN(C)CC3)c2c1C -46.6%, Cc1ccc(-c2csc(=Nc3cccnc3)n2CCCn2ccnc2)cc1C -37%
